# Measured values as given in PubChem BioAssay AID686979 (National Center for Advancing Translational Sciences (NCATS), 2013).
# Where “and” joins values, the source holds several entries; their conditions need not be identical. Identical values can stand only once. In all, about 420,000 compounds went through this assay and about 50,000 (12%) were called active. Inconclusive means that the source gave no clear call. Such entries were picked first, then a sample of the others. Calls follow the shape of the dose curve; as a rule, active = well fitted inhibition curve with a large enough effect; inconclusive = small, poorly fitted or top-dose-only effect; inactive = flat fitted curve, though single readings scatter. No potency is given beside an inconclusive call; the fits are too rough.
# Assay: qHTS for Inhibitors of human tyrosyl-DNA phosphodiesterase 1 (TDP1): qHTS in cells in presence of CPT; also: nearly all actives have a fitted effect of over 55% in size
# Conditions: chicken DT40 Tdp1-/-;hTDP1 cells + 20 nM CPT, ATP luminescence, 48 h; series mostly up to 46.2 µM
# Outline: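 Cell growth measured by CellTiter-Glo luminescence after a minimum 48 h, 37 C compound exposure with 20 nM CPT in Tdp1-knockout DT40 cells stably expressing hTDP1, seeded 400/well; qHTS titration format.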
# Potency is read from the fitted curve at half-maximal effect; tags tell the direction and shape of the fitted curve.
row,SMILES,Potency
1,COc1ccc(CNC(=O)C2CCN(C(=O)c3ccc(F)cc3)CC2)cc1OC,inactive
2,C/C(=N/NC(=O)c1nnn(-c2nonc2N)c1COc1ccccc1)c1ccccc1Cl,"inconclusive [inhibitor, full curve, poor fit]"
3,Fc1ccc(C(c2nnnn2Cc2cccs2)N2CCN(C3CCCC3)CC2)cc1 (centres undefined),"inconclusive [inhibitor, full curve, poor fit]"
4,COc1cccc(CN2CCNC(=O)C2CC(=O)NCCCC2CCCC2)c1OC (centres undefined),inactive
5,Cc1ccc(C2CCN(C(=S)Nc3cccc(Cl)c3)C2)cc1 (centres undefined),"inconclusive [inhibitor, single point]"
6,CCOC(=O)c1c(S(=O)(=O)Nc2ccc(F)cc2Cl)c(C)n(C)c1C,"inconclusive [inhibitor, single point]"
7,c1cnc(N2CCN(c3nc4ccccc4n4cnnc34)CC2)nc1,inactive
8,O=C(CN1C(=O)c2ccccc2S1(=O)=O)Nc1ccc(S(=O)(=O)N2CCCCCC2)cc1,inactive
9,COc1ccc(C(O)(C2CCCCC2)C(CN2CCCC2)c2ccccc2)cc1 (centres undefined),"inconclusive [inhibitor, single point]"
10,C=CCOc1ccc(C(c2c(O)nc(SC)[nH]c2=O)c2c(O)nc(SC)[nH]c2=O)cc1,inactive
11,COc1c(C)cc(C(=O)C2CCCN(C(=O)c3cc4nc(C)cc(C)n4n3)C2)cc1C (centres undefined),"inconclusive [inhibitor, single point]"
12,Cc1ccc(NCN2C(=O)C3C4C=CC(C4)C3C2=O)cc1 (centres undefined),"inconclusive [inhibitor, single point]"
13,CC(CNC(=O)Cn1ccc2cc(S(=O)(=O)N3CCCCC3)ccc21)c1ccccc1 (centres undefined),"inconclusive [inhibitor, single point]"
14,COc1cc(C2Nc3ccc4ncccc4c3C3=C2C(=O)CC(C)(C)C3)cc(OC)c1O (centres undefined),"inconclusive [inhibitor, single point]"
15,CC(C)(C)c1ccc(C(O)CCCN2CCC(C(O)(c3ccccc3)c3ccccc3)CC2)cc1 (centres undefined),active: 2.66 µM and active: 5.8 µM
16,CC1CCCN(C(=O)c2ccc(Cl)c(S(=O)(=O)N3CCCCCC3)c2)C1 (centres undefined),"inconclusive [inhibitor, single point]"
17,COc1ccccc1-c1cc(C(=O)NCCCN2CCOCC2)no1,inactive
18,N#CC1=C(S)N(c2ccccc2)C(c2cccs2)NC1=O (centres undefined),"inconclusive [inhibitor, single point]"
19,CCc1ccc(CNC(=O)CCc2c(C)nn(-c3ccc(N4CCCCC4)nn3)c2C)cc1,"inconclusive [inhibitor, single point]"
20,CCc1ccc2occ(CC(=O)Nc3c(C(=O)Nc4ccc(OC)cc4)oc4ccccc34)c2c1,"inconclusive [inhibitor, single point]"
21,COc1cccc(C(O)c2nc(-c3ccccc3C)cs2)c1 (centres undefined),"inconclusive [inhibitor, single point]"
22,O=C(NCC(c1ccc2c(c1)OCO2)N1CCOCC1)c1ccccc1F (centres undefined),"inconclusive [inhibitor, single point]"
23,O=C(CC1CCCC1)Nc1ccc2c(c1)CCC2,"inconclusive [inhibitor, partial curve]"

row,SMILES,Potency
1,COC(=O)c1c(-c2ccc(C)cc2)csc1NC(=O)C1CC=CCC1C(=O)O (centres undefined),inactive
2,Cc1cc(C(=O)NNc2ccc(Cl)cc2)no1,inactive
3,O=C1C(=O)N(Cc2ccccc2)C(=O)N1CCOc1ccccc1,"inconclusive [inhibitor, single point]"
4,CCN(CC)CCn1c2c(c(SCC(=O)Nc3ccc4c(c3)OCCO4)nc1=O)CCC2,"inconclusive [inhibitor, partial curve]"
5,CC1=CC(=O)Nc2ccccc2S1,"inconclusive [inhibitor, single point]"
6,CCOC(=O)C1=C(c2ccccc2)NC(=O)NC1c1ccc(OC)c(OC)c1 (centres undefined),"inconclusive [inhibitor, single point]"
7,CCOC(=O)N1CCN(c2nc(-c3cccc(OC)c3)cc(C(F)(F)F)n2)CC1,"inconclusive [inhibitor, partial curve]"
8,CNC(=S)Nc1ccc(OCc2ccccc2)cc1,"inconclusive [inhibitor, single point]"
9,CC(CC(=O)Nc1ccc2c(c1)c(=O)n(C)n2-c1ccccc1F)c1ccccc1 (centres undefined),active: 6.51 µM
10,O=C(OCc1ccccc1)N1CCC2CC1c1ccc(-c3ccc4c(c3)OCO4)cc12 (centres undefined),"inconclusive [inhibitor, single point]"
11,Cc1nc2ccc(Cl)cc2c(-c2ccccc2F)c1CC(=O)O,"inconclusive [inhibitor, single point]"
12,O=C(Cn1c(NCCO)nc2ccccc21)c1ccc(Cl)cc1Cl,"inconclusive [inhibitor, single point]"
13,CN(CCOc1ccc(Cl)cc1)C(=O)c1cc(S(=O)(=O)N2CCOCC2)ccc1N1CCCC1,active: 16.4 µM
14,COC(=O)C(C)(C)ONC(=O)Nc1ccc(C)cc1,inactive
15,CCN(CC(=O)NC(C)(C)C)C(=O)c1ccccc1SCC(=O)NC1CCCCCCC1,"inconclusive [inhibitor, single point]"
16,CC(=O)N1CCN(c2ccc(NC(=O)c3ccco3)cc2Cl)CC1,inactive
17,COc1ccc(NC2=NC(=S)N(c3ccc(C)cc3)C23CCCCC3)cc1,"inconclusive [inhibitor, partial curve]"
18,COc1ccc(-c2csc(CCN3N=C(C)CC3=O)n2)cc1,"inconclusive [inhibitor, single point]"
19,COCc1cc(C)nc(SCC(=O)Nc2ccc3[nH]c(=O)[nH]c3c2)c1C#N,inactive
20,CCOC(=O)c1sc(C)c2c(=O)n(Cc3ccc(Cl)cc3)c(C)nc12,active: 23.1 µM
21,CN(Cc1ccccc1)C(=O)COC(=O)C1CCN(S(=O)(=O)c2cccs2)CC1,inactive
22,CCOc1ccc(CCNC(=O)C2CCN(C(=O)N3CC(CC)Oc4ccc(C)cc43)CC2)cc1 (centres undefined),"inconclusive [inhibitor, single point]"
23,CC1CN(c2ncnc3c2cnn3-c2ccc(Cl)cc2)CC(C)O1 (centres undefined),"inconclusive [inhibitor, single point]"

row,SMILES,Potency
1,COc1cc(C2c3cc4c(cc3OC(NNC(N)=S)C2C)OCO4)cc(OC)c1OC (centres undefined),active: 1.3 µM
2,COc1ccccc1C(CC(=O)c1ccccc1)C(=O)c1ccccc1 (centres undefined),"inconclusive [inhibitor, single point]"
3,Cc1c(Cl)cccc1NC(=O)c1nc(C)n(-c2cc(OC(C)C)c(Cl)cc2Cl)n1,"inconclusive [inhibitor, single point]"
4,CC(=O)c1cccc(NC(=O)c2cnn(-c3ccccc3)c2C)c1,"inconclusive [inhibitor, single point]"
5,Cc1ccc2nc(Cl)c3cc(C(=O)N(C)C4CCCCC4)sc3c2c1,inactive
6,Cc1ccc(C(=O)NC23CC4CC(CC(C4)C2)C3)c(Cl)c1,"inconclusive [inhibitor, single point]"
7,CC(=O)c1cc2c(s1)-c1cc(F)ccc1OC2,inactive
8,O=[N+]([O-])c1ccc(/C=N\N2CCN(Cc3ccccc3Cl)CC2)cc1,"inconclusive [inhibitor, single point]"
9,CC(OC(=O)c1ccc(Cl)c(S(=O)(=O)N2CCOCC2)c1)C(=O)Nc1ccc(S(N)(=O)=O)cc1 (centres undefined),inactive
10,O=C(NCc1ccc(F)cc1)C1CCCN(S(=O)(=O)c2cccc3nonc23)C1 (centres undefined),inactive
11,Cc1cc(Oc2cccc3c2S(=O)(=O)N(C2CCCC2)CC(COCc2ccccc2)O3)cc(C)c1C (centres undefined),active: 23.1 µM
12,Cc1ccc(C(=O)c2c3ccc(C(F)(F)F)cc3[n+]([O-])n2CCCN)cc1,active: 23.1 µM
13,C#CCOc1ccc(/C=N/NC(=O)c2cccnc2)cc1OCC,inactive
14,O=C(Nc1ccno1)Nc1ccc(Cl)cc1Cl,"inconclusive [inhibitor, single point]"
15,O=C(c1ccc(Oc2ccc(C(F)(F)F)cc2[N+](=O)[O-])cc1)N1CCOCC1,"inconclusive [inhibitor, partial curve]"
16,CCCCC#Cc1ccccc1CC(=O)Nc1ccccc1,"inconclusive [inhibitor, single point]"
17,O=C(Nc1cc(S(=O)(=O)N2CCOCC2)ccc1N1CCOCC1)c1ccc(Cl)nc1,"inconclusive [inhibitor, single point]"
18,CN1CC2(Cc3c1ccc1ccccc31)C(=O)OC(C)(C)OC2=O,"inconclusive [inhibitor, single point]"
19,O=C(c1ccccc1C(F)(F)F)N1CCN(S(=O)(=O)c2ccccc2)CC1,inactive
20,Cc1ccc(N(C(C)C(=O)N2CCCCC2)S(C)(=O)=O)cc1C (centres undefined),inactive
21,CCCCCCCCN1C(=O)[C@H](CC(=O)NCc2ccccc2)C[C@@]2(C(=O)OCC)CCCC=C12,"inconclusive [inhibitor, single point]"
22,COc1ccc(/C=N/NC(=O)C(=O)/C=C2\NC3(CCCC3)Cc3ccccc32)cc1,"inconclusive [inhibitor, single point]"
23,Cc1ccc(-n2ncc3c(NCc4ccc5c(c4)OCO5)ncnc32)c(C)c1,"inconclusive [inhibitor, single point]"
